Results as given in PubChem BioAssay AID2060909 (Molecular Pharmacology Branch, DTP, NCI, 2025).
Some entries of the source have several records that differ or are many. This is not the full list of results. The source may hold further records. Values that stand side by side are repeats across runs, samples, wells, individuals or studies.

System: 362531-283-R-J2-PDC complex spheroid viability
Test: Anticancer human tumor 362531-283-R-J2-PDC patient-derived colon adenocarcinoma cell line growth inhibition [RAS]
Settings: stronger effect = lower value
From the text: RAS pathway inhibitors in Combinations in Complex Spheroids
A high-throughput screen of multi-cell type tumor spheroids was designed to identify active combinations of RAS pathway inhibitors and targeted small molecules. Complex spheroids include a stromal component modeled by human endothelial cells (HUVEC) and fibroblasts modeled by human mesenchymal stem cells (MSCs). The concentration ranges selected for each drug and investigational agent were based upon clinically achievable concentrations if the clinical Cmax of the agent was known.
Compounds. The drugs and investigational agents: abemaciclib (NSC768073), cobimetinib (NSC768068), divarasib (GDC6063, NSC841802), docetaxel (NSC628503), GDC-1971 (RLY-1971, NSC841576), gemcitabine (NSC613327), inavolisib (NSC800729), ipatasertib (NSC767898), KB-0742 (NSC834161), MRTX-1133 (NSC836407), osimertinib (NSC779217), RMC-4630 (NSC839698), RMC-6236 (NSC851965), RMC-6291 (NSC852671), Ro-3306 (NSC812927), sapanisertib (NSC764658), SN-38 (NSC673596), staurosporine (NSC755774), SY5609 (NSC837396), and tovorafenib (DAY101, NSC766906), were obtained from the National Cancer Institute (NCI) Developmental Therapeutics Program Chemical Repository. The FDA-approved anticancer drug set is available from the NCI Developmental Therapeutics Program. […] The stock solutions were prepared in dimethyl sulfoxide (DMSO, Sigma-Aldrich, St. Louis, MO, cat. D2650) at 800-fold the tested concentration and stored at -70 degrees C prior to their use. All drugs and investigational agents were tested over a range starting from a high concentration at or near the clinical Cmax and decreasing in half-log increments. If the clinical Cmax for an agent had not been determined, the highest concentration tested was 10 microM.
Cell Culture. All cells were maintained in an incubator at 37 degrees C and 5% CO2 with 95% humidity. The PDC lines were cultured according to standard operating procedures established by the NCI PDMR. All PDCs were thawed and cultured in Matrigel-coated flasks prepared with a working solution of 1X Ham's F-12 nutrient mix, without supplementation (Invitrogen, Waltham, MA, cat. 11765054), 100 U/mL penicillin-streptomycin (Invitrogen, cat. 15140122), and 2.5% Matrigel (Corning Inc., Corning, NY, cat. 354248) for the first three passages. The 362531-283-R-J2-PDC and 782815-120-R-J1-PDC lines were cultured in 6C/Colon 1B media, which includes advanced DMEM/F-12 (Thermo Fisher Scientific, cat. 12634028), 10 mM HEPES (Thermo Fisher Scientific, cat. 15630080), 1X GlutaMAX supplement (Thermo Fisher Scientific, cat. 35050061), 0.1 mg/mL primocin (InvivoGen, San Diego, CA, cat. ant-pm-2), 10% defined fetal bovine serum, heat inactivated (HyClone Laboratories Inc., Logan, UT, cat. SH30070.03HI), 50% L-WRN conditioned media (ATCC, cat. CRL-3276), 1.25 mM N-Acetyl-L-cysteine (Sigma-Aldrich, cat. A9165), 10 mM nicotinamide (Sigma-Aldrich, cat. N0636), 1X B-27 supplement (Thermo Fisher Scientific, cat. 17504044), 1X N-2 supplement (Thermo Fisher Scientific, cat. 17502048), 50 ng/mL human EGF (Thermo Fisher Scientific, cat. PHG0311), and 10 microM Y-27632 dihydrochloride (Tocris Bioscience, cat. 1254). The K12877-001-R-J1-PDC line was cultured in 6I media, which includes all 6C/Colon 1B media plus 10 ng/mL human FGF-10 (PeproTech, cat. 100-26), 1 ng/mL human FGF-2 (PeproTech, cat. 100-18B), 1 µM prostaglandin E2 (Tocris Bioscience, cat. 2296), […] hydrocortisone (Sigma-Aldrich, cat. H4001), and […] bovine insulin (Sigma-Aldrich, cat. I6634). The K86415-001-R-J1-PDC line was cultured in 6D media, which includes all 6C/Colon 1B media components minus the L-WRN conditioned media. The 485176-168-R4-J1-PDC was cultured in PANC media, which includes all 6C/Colon 1B media plus 100 ng/mL human FGF-10 (PeproTech, cat. 100-26), 500 nM SB-431542 (Selleckchem, cat. S1067), and 10 nM gastrin (Tocris Bioscience, cat. 3006). […]
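Further: spheroids exposed to the agents for 7 days before readout; luminescence viability as percent of DMSO vehicle control wells.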

**Q.** Which results are given for `CC(C)n1nc(-c2ccc3oc(N)nc3c2)c2c(N)ncnc21`?
**A.** viability, T/C (compound alone 0.01 µM): 107, 103, 81.6, 84.5%; viability, T/C (compound alone 0.1 µM): 34.8, 45.5, 58.1, 74.6%

**Q.** How did the viability, T/C (compound alone 3.16 µM) turn out when `C#Cc1c(F)ccc2cc(O)cc(-c3ncc4c(N5CC6CCC(C5)N6)nc(OCC56CCCN5CC(F)C6)nc4c3F)c12` (stereo unspecified) was run?
**A.** 74.2, 75.3, 69.6, 65.7, 67.1, 60.5, 89.6, 69.1%

**Q.** With `C[C@@H](NC(=O)c1ncnc(N)c1Cl)c1ncc(C(=O)Nc2cc(C(F)(F)F)c(Cl)cn2)s1` as the compound, how does the viability, T/C (compound alone 0.316 µM) read?
**A.** 81.4, 108, 93.5, 104%

**Q.** `O=C(c1ccc(F)c(F)c1Nc1ccc(I)cc1F)N1CC(O)([C@@H]2CCCCN2)C1` was tested. Which viability, T/C (compound alone 0.0316 µM) did it give?
**A.** 108, 82.7, 101, 95.2%

**Q.** Which viability, T/C (compound alone 0.316 µM) does the source give for `CC(Nc1ccc2c(c1)OCCn1cc(N3C(=O)OCC3C(F)F)nc1-2)C(N)=O` (stereo unspecified) here?
**A.** 90.2, 87.7, 60.6, 69.5%

**Q.** Which results are given for `CC1(O)CCCC1n1c(=O)c(C(F)F)cc2cnc(NC3CCN(S(C)(=O)=O)CC3)nc21` (stereo unspecified)?
**A.** viability, T/C (compound alone 1 µM): 70.2, 94, 77.9, 65.3%; viability, T/C (compound alone 10 µM): 54.5, 48.6, 37.4, 72.2%

**Q.** `CCN1CCN(Cc2ccc(Nc3ncc(F)c(-c4cc(F)c5nc(C)n(C(C)C)c5c4)n3)nc2)CC1` was tested. Which viability, T/C (compound alone 0.0316 µM) did it give?
**A.** 59.5, 99.8, 96.3, 95.6%

**Q.** What about the viability, T/C (compound alone 1 µM) of the same compound?
**A.** 45.5, 50.3, 78.6, 76.5%

**Q.** For `C=CC(=O)N1CCN(c2nc(OCC3CCCN3C)nc3c(F)c(-c4nc(N)cc(C)c4C(F)(F)F)c(Cl)cc23)C(C)C1` (stereo unspecified), which viability, T/C (compound alone 1 µM) is on record?
**A.** 103, 101, 104, 100, 102, 99.3, 107, 96.6, 115, 106, 89.8, 99.9%
